Measured values reported in patent publication US20250313648A1, “Binders of Chondroitin Sulfate Proteoglycan (CSPG4) Polypeptides” (Regents of the University of Minnesota, priority 2021, published 2025).

Experiments:
[1] = test system: HEY Mock and CRISPR cells; test: ADCC, DELFIA EuTDA cytotoxicity assay with NK92 cell lines; assay type: cell-based, human; conditions: NK cells expressing wild-type CD16a or CD16a/S197P, 1:1 effector:target ratio, 4 hrs
Protocol: (§1) FIGS. 11A-11C. FIG. 11A) HEY Mock and CRISPR cells were treated with the indicated anti-CSPG4 monoclonal antibodies or normal mouse IgG1 (nmIgG1). The indicated NK92 cell lines were added at a 1:1 effector:target ratio and ADCC determined at 4 hrs using the DELFIA EuTDA cytotoxicity assay following the manufacturer's protocol. Bars represent the percent specific cell lysis for triplicate samples+/−s.e.m. *p<0.05, ****p<0.0001 vs. nmIgGl control by two-way ANOVA with Dunnett's multiple comparisons test. ADCC of spheroids. FIG. 111B) A repeat of the experiment of FIG. 11A. **p=0.0088, ***p<0.0009 by 2 way ANOVA with Dunnett's multiple comparisons test compared to nmIgGl control; ** and ***p<0.0009 vs no Ab control. ADCC of spheroids. FIG. 11C) OVCAR8 Mock and CRISPR cells were treated with the indicated anti-CSPG4 monoclonal antibodies or normal mouse IgG1 (nmIgGl). The indicated NK92 cell lines were added at a 1:1 effector:target ratio and ADCC determined at 4 hrs using the DELFIA EuTDA cytotoxicity assay following the manufacturer's protocol. […]
(§2) An additional anti-CSPG4 antibody, 8G5A5, was identified using the methods of Example 6. […] The indicated NK92 cell lines were added at a 1:1 effector:target ratio and ADCC determined at 4 hrs using the DELFIA EuTDA cytotoxicity assay following the manufacturer's protocol. […]

[2] = test system: OVCAR8 ovarian cancer cells; test: as above; assay type: cell-based, human; conditions: 1:1 effector:target ratio, 4 hrs
Protocol: as §1, §2

B1: 8G5A6: anti-CSPG4 mouse antibody; heavy chain variable SEQ ID NO:24, light chain variable SEQ ID NO:32 (antibody, V domains shown)
VH: EVQLQQSGPDLVKPGASVKISCKASGYSFTVYYMNWVKQSHGKSLEWIGRIDPNDGGASYNQKFKGKAILTVDKSSGTAYMELRSLTSEDSAVYYCARRDYYGSKDYWGQGTTLTVSS
VL: DIVLTQSPASLAVSLGQRATISCKASQSVDYDGDSYMNWYQQKPGQPPKLLIYAASNLESGIPARFSGSGSGTDFTLNIHPVEEEDAAIYYCQQSNEDPWTFGGGTKLEIKR
- specific ADCC of CSPG4 positive EOC cells [1]: can mediate specific ADCC
- specific ADCC of CSPG4 positive cells [2]: able to mediate specific ADCC
